# Laboratory results from the supplement of paper PMC4166925.
# ± gives the standard deviation of the averaged measurements. The full ranking holds about 33,000 sequences; the median of “E-score (dimensionless, -0.5 to 0.5)” is about -0.046, and the highest 2% start at about 0.36. The list shows a part of the results.
# System: T1, SpTbr T-box DNA-binding domain (GST fusion)
# T1 sequence: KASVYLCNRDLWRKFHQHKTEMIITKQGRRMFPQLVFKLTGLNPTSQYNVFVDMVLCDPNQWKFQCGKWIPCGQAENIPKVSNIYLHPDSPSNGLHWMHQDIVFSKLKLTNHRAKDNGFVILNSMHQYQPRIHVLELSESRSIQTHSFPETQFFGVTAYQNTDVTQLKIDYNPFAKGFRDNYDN
# Assay: PBM E-score of 8-mer (E-score (dimensionless, -0.5 to 0.5)); Tbr is Tbrain of the sea star Patiria miniata (Pm) or the sea urchin Strongylocentrotus purpuratus (Sp); higher = stronger binding preference; most listed sequences are background and not binding sites
# Conditions: the construct has about 5 more residues each side
# Experimental: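 Universal protein-binding microarray (Agilent AMADID 016060, 60-bp probes with a 35-bp variable region) incubated with 200 nM GST-fused Strongylocentrotus purpuratus Tbr T-box DNA-binding domain (residues 362-554) in PBS pH 7.5. Scored for every ungapped 8-mer (given with its reverse complement) as E-score (range -0.5 to 0.5; >0.45 counts as bound) and Z-score of median probe intensity. Two replicate arrays (datasets 1 and 2).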
# 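Further: protein at 200 nM in PBS on universal double-stranded arrays.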
row,Sequence,PBM E-score of 8-mer
1,ATCGCCTC,0.169 ± 0.061
2,ACTGCCGG,-0.0124 ± 0.022
3,AAAGTATC,-0.00131 ± 0.029
4,TGCCTGAA,-0.2124 ± 0.00087
5,AATCTCCG,-0.175 ± 0.042
6,AGGAATAG,-0.248 ± 0.037
7,CTCGGCCC,-0.0368 ± 0.041
8,ACTCACAG,0.313 ± 0.011
9,CTCCGATC,-0.035 ± 0.069
10,GAGGCATA,-0.25 ± 0.078
11,CATTTCAA,-0.00958 ± 0.06
12,GCTGGAAA,-0.0541 ± 0.037
13,AGCTGACC,-0.27 ± 0.024
14,CGCGAACG,0.422 ± 0.013
15,GAATAGGC,-0.0606 ± 0.049
16,CGGCCTCC,-0.264 ± 0.058
17,AAACGATC,0.11 ± 0.0034
18,AAGGCCGA,-0.1976 ± 0.0019
19,ACCTACGC,0.071 ± 0.034
20,AGTAACAT,-0.266 ± 0.032
21,ATGGACGC,-0.114 ± 0.015
22,AGACGTAG,-0.217 ± 0.039
23,AGGGCACA,0.0118 ± 0.023
24,GATCCTCA,0.11 ± 0.055
25,AGCATGAT,-0.0771 ± 0.026

row,Sequence,PBM E-score of 8-mer
1,GGGATCCC,-0.236 ± 0.0038
2,ATGCCAGC,-0.105 ± 0.0098
3,CAGTCTCA,0.1623 ± 0.00064
4,GCGACAAA,0.298 ± 0.017
5,ACACTGAA,-0.0398 ± 0.041
6,ATCTCAAA,-0.202 ± 0.0099
7,GATATCAA,0.0861 ± 0.0077
8,GAACTGCA,-0.133 ± 0.029
9,TGTGGCAA,0.261 ± 0.011
10,GACTCCAA,-0.105 ± 0.096
11,CAAGACTA,-0.19 ± 0.17
12,CATGGGAG,-0.068 ± 0.026
13,CGCGGTAG,0.147 ± 0.045
14,GCTACAGA,0.0447 ± 0.073
15,CCTGACCA,-0.0438 ± 0.067
16,CAGACTTA,-0.113 ± 0.05
17,TCTCCGAA,-0.175 ± 0.042
18,AACATACC,0.104 ± 0.018
19,AGATTGAA,-0.193 ± 0.028
20,TCATACCA,-0.0164 ± 0.012
21,ACAGGATA,-0.119 ± 0.036
22,GCGGTAAA,-0.035 ± 0.099
23,ACCTCCCC,-0.0138 ± 0.047
24,CCCGCCCG,-0.148 ± 0.0098
25,ATACCTCC,-0.0183 ± 0.066

row,Sequence,PBM E-score of 8-mer
1,ACGCTCCA,-0.1 ± 0.057
2,GCAATCGC,0.212 ± 0.0066
3,ATTGTCTA,-0.196 ± 0.063
4,ATCTGATA,-0.22 ± 0.036
5,CGTAGGCA,-0.0428 ± 0.0036
6,AATGGCTC,-0.0407 ± 0.06
7,CCACAATA,-0.0827 ± 0.014
8,CTAATTGA,0.0472 ± 0.023
9,GCTCGTTA,0.0153 ± 0.065
10,ATAACAAC,0.12 ± 0.092
11,ATATTAAC,-0.0957 ± 0.015
12,GCATACCC,-0.188 ± 0.08
13,CTCTGCCA,0.0746 ± 0.08
14,CTCGGACA,-0.0674 ± 0.015
15,CCTAACTC,-0.0227 ± 0.032
16,CAAACGTC,-0.223 ± 0.032
17,CAGTCTCG,-0.0906 ± 0.026
18,ATACAGGG,-0.276 ± 0.015
19,CTCTACTA,-0.000155 ± 0.028
20,ATACGCGA,0.132 ± 0.016
21,AATACGAT,-0.0904 ± 0.018
22,CCGATGCA,-0.207 ± 0.029
23,CCGGATCA,0.0508 ± 0.061
24,GTTGGCGA,0.261 ± 0.036
25,CCTGTGCC,-0.039 ± 0.027

row,Sequence,PBM E-score of 8-mer
1,GATAGCGA,0.0892 ± 0.037
2,ATACCGCA,0.00315 ± 0.0055
3,CTGGTCCA,-0.205 ± 0.033
4,CCAGCTAG,-0.162 ± 0.017
5,AGAAGAAG,-0.288 ± 0.087
6,CTCAGGCA,-0.202 ± 0.032
7,ATACAGAG,-0.0888 ± 0.041
8,GCCGCAAC,-0.0427 ± 0.063
9,AGTACGTG,0.175 ± 0.012
10,ATCAACGC,0.182 ± 0.019
11,GGTGCCCA,-0.0509 ± 0.059
12,GCTGACAA,0.227 ± 0.031
13,AAAATCCC,-0.226 ± 0.091
14,CTTGCAAC,0.0931 ± 0.0032
15,AAGCCTGA,-0.0652 ± 0.057
16,GTACTAGA,-0.127 ± 0.0062
17,CGCGGTCA,0.0538 ± 0.011
18,ACTTACAG,0.115 ± 0.089
19,ACATCGGG,0.0346 ± 0.041
20,GAACCTAC,-0.227 ± 0.015
21,ACTTAGTA,-0.0419 ± 0.028
22,ACTCCGTC,-0.0519 ± 0.05
23,GCCCGAAC,-0.163 ± 0.015
24,AGCTAGCC,-0.13 ± 0.019
25,CCTCAACC,-0.102 ± 0.052

row,Sequence,PBM E-score of 8-mer
1,CTCTCGGC,0.209 ± 0.025
2,AAGTGGGA,0.238 ± 0.037
3,GGAAGGAA,-0.211 ± 0.026
4,AGTCCCTC,-0.0691 ± 0.016
5,ACTTGTGA,0.412 ± 0.011
6,AAGGTATG,0.0236 ± 0.057
7,ATTCGAGA,0.0181 ± 0.075
8,GGTAGTAC,-0.311 ± 0.031
9,CTCCCGCA,-0.186 ± 0.1
10,GACATCAA,-0.0216 ± 0.048
11,ACCCACCC,0.106 ± 0.026
12,AGAAAGCA,-0.00139 ± 0.0029
13,TGAAAACA,0.06 ± 0.051
14,AACACAAG,0.0489 ± 0.098
15,CGGCTTGC,-0.14 ± 0.0054
16,AACACAGC,0.115 ± 0.086
17,ATCTATAC,-0.117 ± 0.0014
18,CCACTCCC,-0.0266 ± 0.047
19,CAGGCGGC,0.0345 ± 0.014
20,CATATCGA,-0.154 ± 0.056
21,GGTTGGGA,-0.274 ± 0.1
22,CTCAACAC,0.269 ± 0.022
23,ACACTTAT,0.402 ± 0.0068
24,ACCGTACT,-0.109 ± 0.043
25,AATCCTCT,-0.0232 ± 0.055

row,Sequence,PBM E-score of 8-mer
1,CACTTCAG,0.269 ± 0.049
2,ACCGTTGA,-0.159 ± 0.022
3,CTGACCCC,-0.2376 ± 0.0005
4,GAGCAAAA,-0.074 ± 0.036
5,CACTACGC,0.169 ± 0.05
6,ATCCAGGA,-0.0833 ± 0.056
7,TGACTACA,-0.075 ± 0.11
8,AACCATAC,-0.171 ± 0.013
9,CAACTGCG,0.13 ± 0.032
10,CTCCCTCC,0.00507 ± 0.0053
11,GAACAGCC,0.0705 ± 0.014
12,ACATTCGG,-0.177 ± 0.057
13,CACTTGGA,0.223 ± 0.026
14,AGAGTCAC,0.147 ± 0.082
15,ACTAGTAA,-0.158 ± 0.058
16,CAGGTAGG,0.0642 ± 0.056
17,AGATACTA,-0.212 ± 0.051
18,AGGCCCTA,-0.259 ± 0.014
19,GACTGAAA,0.039 ± 0.028
20,AGCCATCA,-0.12 ± 0.041
21,CGAAAACC,-0.297 ± 0.0092
22,AATATTAT,-0.0133 ± 0.0078
23,CGTTAACC,0.113 ± 0.07
24,TCTAGGAA,-0.24 ± 0.038
25,GAGAAAGA,-0.0698 ± 0.013

row,Sequence,PBM E-score of 8-mer
1,GGTTGGCA,0.175 ± 0.033
2,CTAAGTCA,-0.021 ± 0.041
3,CATTCGTC,-0.0309 ± 0.043
4,AATTCGCC,0.0743 ± 0.06
5,ATAGCTGC,0.0568 ± 0.00099
6,GCGGGCAA,-0.219 ± 0.011
7,CTACGTGA,0.0334 ± 0.011
8,CCCAACTA,-0.164 ± 0.083
9,CCCGAGAG,-0.0846 ± 0.014
10,ACTACGTA,-0.181 ± 0.067
11,CCCATCTA,-0.138 ± 0.0069
12,ACACCATA,0.231 ± 0.071
13,ATGATCCA,-0.103 ± 0.027
14,AGCATATC,0.0068 ± 0.022
15,GCGTTTGA,-0.0764 ± 0.061
16,AATATTGT,0.0494 ± 0.035
17,AATCTAAC,-0.00121 ± 0.0062
18,TAACCATA,-0.1302 ± 0.00064
19,AAAGAGGG,-0.0825 ± 0.036
20,CTGCCATA,0.0347 ± 0.0076
21,AGCGCTAC,0.128 ± 0.024
22,GTAGATGA,-0.143 ± 0.041
23,TGGATCCA,-0.189 ± 0.11
24,GGCGAAAC,-0.00507 ± 0.028
25,ATTTGCGC,0.146 ± 0.046

row,Sequence,PBM E-score of 8-mer
1,GATCCCAC,0.189 ± 0.043
2,AATCTTAG,-0.117 ± 0.033
3,AGTGTTAT,0.372 ± 0.045
4,GAGGACAA,0.00478 ± 0.025
5,ATAGCCCA,-0.13 ± 0.078
6,CCCCGCGA,0.179 ± 0.044
7,CCCTGACA,0.192 ± 0.032
8,CGGAGGTC,-0.151 ± 0.0063
9,TACAACGA,-0.274 ± 0.042
10,CAATTTGA,-0.174 ± 0.029
11,ATAAGCTC,-0.0656 ± 0.071
12,CGAAACCC,-0.0104 ± 0.06
13,ACACGCTG,0.132 ± 0.035
14,CATAGTTA,-0.0119 ± 0.048
15,ACTTCGCT,0.00782 ± 0.026
16,AGCGTGGC,0.0797 ± 0.084
17,CTGTCGGC,0.208 ± 0.04
18,CCAGCTGC,-0.075 ± 0.11
19,GATTTGAC,0.103 ± 0.04
20,AATCTATG,-0.223 ± 0.062
21,CGATCCCG,-0.0498 ± 0.05
22,TATGGTGA,0.1265 ± 0.00047
23,GAGGGGCC,-0.213 ± 0.029
24,CTCCGCCA,0.046 ± 0.039
25,CCTTACAA,-0.026 ± 0.032

row,Sequence,PBM E-score of 8-mer
1,AGTAGTAG,-0.0724 ± 0.017
2,AATATACT,-0.284 ± 0.14
3,ACTTGCCC,0.0174 ± 0.014
4,GCTCAGCC,-0.19 ± 0.043
5,GGGACCAA,-0.0735 ± 0.15
6,CAAACTAA,-0.163 ± 0.04
7,AAGGATTC,-0.18 ± 0.067
8,ACCTTCCC,-0.0803 ± 0.011
9,CTAGCACC,0.415 ± 0.014
10,GACTGGTA,0.0027 ± 0.036
11,AGCACTTG,0.168 ± 0.018
12,AAACGCAG,-0.0888 ± 0.067
13,AAGTTCAG,-0.223 ± 0.036
14,CGCTGACC,-0.0598 ± 0.079
15,AGTTAAGA,-0.17 ± 0.025
16,GACCATAC,-0.206 ± 0.012
17,GGCGACCC,0.111 ± 0.043
18,CGTATTGC,-0.144 ± 0.048
19,ACGTTGGC,0.189 ± 0.0034
